From the supplement of paper PMC4166925
± gives the standard deviation of the averaged measurements. Whole data set: some 33,000 sequences, median “E-score (dimensionless, -0.5 to 0.5)” near -0.046, cut for the highest 2% near 0.36. The list shows a part of the results.

test system: T1, SpTbr T-box DNA-binding domain (GST fusion); experiment: PBM E-score of 8-mer (E-score (dimensionless, -0.5 to 0.5)); Tbr is Tbrain of the sea star Patiria miniata (Pm) or the sea urchin Strongylocentrotus purpuratus (Sp); higher = stronger binding preference; most listed sequences are background and not binding sites; conditions: the construct has about 5 more residues each side
T1 sequence: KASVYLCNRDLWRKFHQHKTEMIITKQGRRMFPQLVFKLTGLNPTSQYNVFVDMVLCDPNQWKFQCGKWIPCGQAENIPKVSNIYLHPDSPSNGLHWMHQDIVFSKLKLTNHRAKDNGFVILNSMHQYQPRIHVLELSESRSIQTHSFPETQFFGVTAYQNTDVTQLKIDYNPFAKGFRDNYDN
How it was run: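 GST-fused Tbr T-box DNA-binding domains (the whole T-box plus about five flanking residues) were expressed in BL21 E. coli at 20 °C and purified by glutathione affinity chromatography. Universal Agilent oligonucleotide arrays were made double-stranded by primer extension, incubated with 200 nM protein in PBS (pH 7.5), then scanned and quantified. Every ungapped 8-mer was scored from probe intensities. The Universal PBM Analysis Suite gave each word an enrichment E-score, averaged over duplicate arrays.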

| Sequence | PBM E-score of 8-mer |
| --- | --- |
| ACCGCGGA | -0.0813 ± 0.0024 |
| ATGGCCGG | -0.25 ± 0.017 |
| CCCGCTCA | 0.0295 ± 0.12 |
| AGAAGGAG | -0.205 ± 0.082 |
| GAGTGATA | 0.159 ± 0.05 |
| AACGCCAA | 0.137 ± 0.0054 |
| GACTGGCA | -0.0276 ± 0.083 |
| AGCAATCG | 0.0752 ± 0.012 |
| CAATTGGG | -0.141 ± 0.014 |
| AGGATTGA | -0.0132 ± 0.059 |
| CTGGGCGC | 0.158 ± 0.046 |
| ACCCAATC | -0.142 ± 0.094 |
| AGAACCAA | -0.11507 ± 4.2e-05 |
| CTCTCTGA | -0.232 ± 0.017 |
| CTAACCGA | -0.116 ± 0.024 |
| CATTGTTA | 0.079 ± 0.066 |
| CCTTCGCG | 0.282 ± 0.036 |
| CGCATGGA | -0.171 ± 0.03 |
| CATTATGG | 0.0383 ± 0.046 |
| ATCTTGTC | 0.00987 ± 0.039 |
| CATTCCAG | -0.221 ± 0.019 |
| GGAACCCA | -0.181 ± 0.0065 |

| Sequence | PBM E-score of 8-mer |
| --- | --- |
| AGTGTGGC | 0.33 ± 0.014 |
| ATGTGGCC | -0.12 ± 0.073 |
| CAAAACCG | 0.0517 ± 0.016 |
| GATCGAGA | 0.00394 ± 0.097 |
| AGACAGAG | -0.2 ± 0.0093 |
| ATGCAGCC | -0.131 ± 0.033 |
| CGGAATGA | -0.133 ± 0.016 |
| AAGCGAGG | 0.115 ± 0.03 |
| CGACACAC | 0.217 ± 0.038 |
| ATACGGTC | -0.0883 ± 0.059 |
| ATTGCGCA | -0.0884 ± 0.043 |
| ATTGGTTC | -0.115 ± 0.07 |
| GGACTCGA | -0.26 ± 0.13 |
| TACCACGA | -0.00786 ± 0.00088 |
| CGAAGCTC | -0.151 ± 0.05 |
| GGCTTCTA | -0.319 ± 0.012 |
| ACACCACC | 0.365 ± 0.0069 |
| GCCATTCC | 0.0498 ± 0.0052 |
| ATTCTGTG | -0.0566 ± 0.036 |
| GACCGCTA | -0.224 ± 0.056 |
| TAACATAA | 0.0343 ± 0.02 |
| CCTTCATC | -0.0778 ± 0.034 |

| Sequence | PBM E-score of 8-mer |
| --- | --- |
| GGTATAAA | -0.187 ± 0.033 |
| GAATGCTA | 0.117 ± 0.012 |
| CGGCAACC | -0.0907 ± 0.046 |
| AGGGAAAT | -0.171 ± 0.022 |
| ACTACTTC | -0.0578 ± 0.031 |
| CAGTCTAC | -0.177 ± 0.035 |
| GATATATA | 0.0251 ± 0.046 |
| CGCTATGC | -0.0429 ± 0.048 |
| TGCTCTAA | -0.3265 ± 0.0019 |
| AGGCGCAG | 0.0482 ± 0.081 |
| GTGCCACA | 0.255 ± 0.0037 |
| ATGTTGCA | -0.00245 ± 0.0042 |
| AAAGGTCA | -0.271 ± 0.0056 |
| GGGACGAC | -0.195 ± 0.0086 |
| AGCGACGA | 0.167 ± 0.064 |
| TACCATAA | -0.0714 ± 0.024 |
| TACAATAA | -0.244 ± 0.09 |
| AGAGACCG | -0.117 ± 0.063 |
| GCCCAATA | -0.142 ± 0.1 |
| ATTGTCAC | 0.399 ± 0.013 |
| CCTAACCA | -0.0548 ± 0.051 |
| GGGTAGCA | 0.079 ± 0.046 |

| Sequence | PBM E-score of 8-mer |
| --- | --- |
| TCACCAGA | 0.122 ± 0.012 |
| CCCCGCTA | 0.0351 ± 0.065 |
| GGTCGTTA | 0.0944 ± 0.048 |
| CATCCGAA | -0.263 ± 0.013 |
| CGGCCGTC | -0.00995 ± 0.014 |
| CACTGCCC | 0.0524 ± 0.059 |
| AGGCGGCG | -0.0129 ± 0.034 |
| AAAGCGGA | -0.176 ± 0.057 |
| CTTGGAGC | -0.17 ± 0.054 |
| GCACCTCC | 0.396 ± 0.013 |
| CATGGAGC | -0.275 ± 0.048 |
| GCCGTATA | -0.237 ± 0.045 |
| CGTTAAAA | 0.0585 ± 0.1 |
| ACTATCCC | -0.145 ± 0.014 |
| CGGGTAAG | -0.026 ± 0.015 |
| ACCCCCGG | -0.155 ± 0.0082 |
| GGAACACA | 0.0712 ± 0.075 |
| AAGAGCGC | -0.0972 ± 0.037 |
| ACAGTAGC | 0.14 ± 0.0063 |
| GATTGCAA | -0.0515 ± 0.087 |
| AGATGCGC | -0.042 ± 0.0083 |
| ACTATAAC | 0.0539 ± 0.046 |

| Sequence | PBM E-score of 8-mer |
| --- | --- |
| CGAACTAC | 0.0447 ± 0.036 |
| CTGAGAGC | -0.134 ± 0.025 |
| AGAGGTCC | -0.0898 ± 0.045 |
| GCCGACGA | 0.0285 ± 0.017 |
| ACGTAGAC | 0.03 ± 0.015 |
| CGATTCGC | 0.261 ± 0.029 |
| CCAAGAAG | -0.183 ± 0.082 |
| CCGCATAA | -0.25 ± 0.0057 |
| AAATCTTA | -0.0137 ± 0.04 |
| CTTTCGTC | -0.0317 ± 0.022 |
| ACTATTCG | 0.0973 ± 0.022 |
| CTGACATA | -0.0395 ± 0.064 |
| CGGCACTA | -0.0878 ± 0.018 |
| ACCGAGCC | -0.0839 ± 0.099 |
| TACTAGGA | -0.158 ± 0.019 |
| CCAATCGG | -0.175 ± 0.058 |
| AGGACACT | -0.00903 ± 0.01 |
| AGAAAAGC | -0.141 ± 0.095 |
| GACGAGAA | 0.117 ± 0.005 |
| GGCGCACA | 0.0799 ± 0.062 |
| CGTAAAGC | -0.1 ± 0.022 |
